# Test results: PubChem BioAssay AID686979 (National Center for Advancing Translational Sciences (NCATS), 2013)
# Out of some 420,000 compounds screened, about 50,000 (12%) were called active. Inconclusive results, whose numbers are uncertain, are shown with a selection of clear calls. Calls come from the whole dose curve; as a rule, active = well fitted inhibition curve with a large enough effect; inconclusive = small, poorly fitted or top-dose-only effect; inactive = flat fitted curve, though single readings scatter. No potency is given beside an inconclusive call; the fits are too rough.
# Assay: qHTS for Inhibitors of human tyrosyl-DNA phosphodiesterase 1 (TDP1): qHTS in cells in presence of CPT; note: nearly all actives have a fitted effect of over 55% in size
# Conditions: chicken DT40 Tdp1-/-;hTDP1 cells + 20 nM CPT, ATP luminescence, 48 h; activity change, negative = growth inhibition: at 46.2 µM (top of the series) unless noted
# Outline: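 Cell growth measured by CellTiter-Glo luminescence after a minimum 48 h, 37 C compound exposure with 20 nM CPT in Tdp1-knockout DT40 cells stably expressing hTDP1, seeded 400/well; qHTS titration format.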
# % is set by controls: 0 for no effect and ±100 for the full control effect; potency is the fitted concentration of half-maximal effect; tags give direction and shape of the fitted curve.
Compound,Potency,"activity change, negative = growth inhibition"
COc1cc(NC(=O)c2cc([N+](=O)[O-])ccc2NC(=O)CNC2CCCCC2)cc(OC)c1,active: 20.6 µM,–
O=C(CCC(=O)c1ccc(F)cc1)Nc1cccnc1,–,inactive: 2.56%
O=C(NCCc1c[nH]c2ccccc12)C(=O)NCC1OCCCN1S(=O)(=O)c1cc(F)ccc1F (stereo not given),–,inactive: -25.4%
COc1ccc(-c2cc(C(F)(F)F)nc(SCCC(=O)N3CCN4CCCC4C3)n2)cc1 (stereo not given),"inconclusive [inhibitor, single point]",–
COc1ccc(CNCCC2(Cc3ccccc3)CC(C)N(C)CC2C)cc1OC (stereo not given),"inconclusive [inhibitor, single point]",–
CCOc1ccc(S(=O)(=O)n2nnc3ccccc32)cc1C,–,inactive: 3.56%
COc1ccc(CNC(=O)CS(=O)CC(=O)O)cc1OC (stereo not given),–,inactive: -6.4%
COc1ccc(NC(=O)c2ccco2)cc1NC(=O)c1cccc(OC(C)C)c1,"inconclusive [inhibitor, single point]",–
COc1cccc(NC(=O)Cn2c(=O)n(CCCCC(=O)NCc3ccc4c(c3)OCO4)c(=O)c3ccccc32)c1,"inconclusive [inhibitor, single point]",–
Cc1ccc(NC(=O)Cn2nc(-c3ccccc3)nc2-c2ccccc2)c(C)c1,"inconclusive [inhibitor, single point]",–
Cc1ccccc1OCCn1c(S(=O)(=O)O)nc2c(N)ncnc21,–,inactive: -1.05%
CCOC(=O)N1CCC(NC(=O)c2cnn(-c3ccc(C)cc3)c2C2CCN(C(=O)OC(C)(C)C)CC2)CC1,active: 20.6 µM,–
COc1ccc(-n2c(SCc3nc(-c4ccc(Cl)cc4)no3)nnc2-c2ccncc2)cc1,"inconclusive [inhibitor, single point]",–
CCOc1ccccc1C(=O)Nc1cc(-c2nc3cccnc3s2)ccc1C,active: 8.2 µM,–
COc1ccc(CCn2c(=S)[nH]c3cc(C(=O)N4CCOCC4)ccc3c2=O)cc1OC,"inconclusive [inhibitor, partial curve]",–
N#C/C(=C\c1ccc(N2CCCCC2)o1)C(=O)Nc1cccc(Br)c1,"inconclusive [inhibitor, partial curve]",–
CCCS(=O)(=O)N1CC(=O)N(c2cc(C)cc(C)c2)C(C)(C(=O)NC2CCCCCC2)C1 (stereo not given),–,inactive: -11.5%
N#Cc1ccc(NC(=O)c2ccc3c(c2)nnn3C2CCCC2)cc1,–,inactive: -15.7%
COc1cc(/C=N/NC(=O)c2ccc(C)nc2)cc([N+](=O)[O-])c1O,–,inactive: 19.9%
CCOc1ccccc1NC(=O)CCCCCN1C(=O)[C@@H]2Cc3ccccc3CN2C1=O,–,inactive: -1.21%
O=C(CNC(=O)c1ccccc1F)N/N=C/c1cccnc1,–,inactive: -0.935%
Cc1ccsc1/C=N/n1c(-c2cc(-c3ccccc3)n[nH]2)n[nH]c1=S,"inconclusive [inhibitor, partial curve, poor fit]",–
Oc1cccc(Nc2cc(-c3ccccc3)ncn2)c1,"inconclusive [inhibitor, partial curve]",–
O=C1CCCc2nc(N3CCN(C(c4ccccc4)c4ccccc4)CC3)ncc21,active: 16.4 µM,–

Compound,Potency,"activity change, negative = growth inhibition"
NC(=S)N/N=C1\CCOc2ccc(F)cc21,"inconclusive [inhibitor, single point]",–
CCOc1ccc(-c2cc(CCCC(=O)NCCc3ccc(OC)c(OC)c3)no2)cc1,"inconclusive [inhibitor, single point]",–
CCCCCCCC(=O)NNC(=O)c1c(O)c2ccccc2[nH]c1=O,"inconclusive [inhibitor, single point]",–
Cc1cc(C(=O)CN2C(=O)NC3(CCCc4sccc43)C2=O)c(C)n1-c1ccccc1 (stereo not given),"inconclusive [inhibitor, single point]",–
CC1(C)CC(=O)N(CC(=O)NC2CCCC2)c2ccccc2S1(=O)=O,–,inactive: 4.49%
Cc1ccccc1NC(=O)Cn1nnc(C(=O)NCc2cccs2)c1N,active: 9.2 µM,–
CCN1C(=S)N[C@@H](CCc2ccccc2)[C@H](C(=O)OC)[C@H]1C,"inconclusive [inhibitor, single point]",–
CC(C)CC(=O)NC(=S)Nc1cccc(NC(=O)c2ccccc2)c1,"inconclusive [inhibitor, single point]",–
Fc1ccc(C[n+]2csc3ccccc32)cc1,active: 1.03 µM,–
O=C(NC1CC1)C1=C[C@H](C2CCCCC2)C[C@H](OCc2ccc(CO)cc2)O1,"inconclusive [inhibitor, single point]",–
N#C/C(C(=O)NCc1ccccc1)=C1/N=C(NC(=O)c2ccco2)c2ccccc21,"inconclusive [inhibitor, single point]",–
COc1ccc(-c2nc(-c3ccc(NC(=O)c4ccncc4)cc3)no2)cc1OC,active: 5.17 µM,–
O=C(c1cnn2c(C(F)(F)F)cc(-c3ccccc3)nc12)N1CCCCC1c1cccnc1 (stereo not given),"inconclusive [inhibitor, single point]",–
C[C@@H]1CN([C@@H](C)CO)C(=O)CCCn2nncc2CO[C@H]1CN(C)Cc1ccc(-c2ccccc2)cc1,–,inactive: -0.459%
COc1cc(-c2noc(C)c2C#CC2(O)CCCCC2)cc(OC)c1OC,"inconclusive [inhibitor, single point]",–
COc1cccc(NC(=O)CN(C)C(=O)c2ccc(N3CCCCC3)c([N+](=O)[O-])c2)c1,"inconclusive [inhibitor, single point]",–
Cn1nc(C(=O)NCCc2ccc3c(c2)OCCO3)c2ccccc2c1=O,"inconclusive [inhibitor, single point]",–
Cc1csc(NC(=O)c2ccc(Cn3nc(C)c(Br)c3C)o2)n1,"inconclusive [inhibitor, partial curve]",–
CC1(C)C2(C#N)C(=O)NC(=O)C12C#N (stereo not given),–,inactive: -19.9%
CCc1ccccc1Nc1nc2ccccc2[nH]1,"inconclusive [inhibitor, single point]",–
O=C(CN1CCN(S(=O)(=O)c2ccc(Br)cc2)CC1)N/N=C/c1ccc(Br)s1,"inconclusive [inhibitor, single point]",–
Cc1cc(C)c2c(n1)nn1c(N3CCN(c4ccccc4C)CC3)cc(C)nc21,"inconclusive [inhibitor, single point]",–
O=C(Nc1ccc(Cl)c(Cl)c1)c1cccc(S(=O)(=O)NCc2cccnc2)c1,active: 5.8 µM,–
CC(CNC(=O)c1csc2c1CCCCC2)c1ccccc1 (stereo not given),active: 20.6 µM,–

Compound,Potency,"activity change, negative = growth inhibition"
COc1ccc(NC(=O)CN2C(=O)CSC(C)C2=O)cc1 (stereo not given),"inconclusive [inhibitor, single point]",–
CC(C)C(=O)Nc1cccc(NC(=S)NC(=O)c2ccc(Cl)cc2)c1,"inconclusive [inhibitor, single point]",–
COc1ccc(/C=C2/C(=O)N(c3ccccc3)N=C2C)cc1Br,"inconclusive [inhibitor, full curve, poor fit]",–
CCOC(=O)C1CCCN(C(=S)Nc2ccc(S(=O)(=O)N3CCOCC3)cc2)C1 (stereo not given),"inconclusive [inhibitor, single point]",–
O=C(NCc1cccnc1)c1cc(-c2ccccc2)on1,"inconclusive [inhibitor, partial curve]",–
Cc1ccc(CSc2nc3cc(C(=O)NC4CCCC4)ccc3c(=O)n2Cc2ccccc2)cc1,"inconclusive [inhibitor, single point]",–
CC(C)c1nc2oc3c(=O)[nH]cnc3c2c2c1CCC2,–,inactive: -4.36%
O=C1Nc2cc(Cl)cnc2N2CCCC12 (stereo not given),–,inactive: -12.6%
Cc1ccc(C)c(CSc2cn(CCNC(=O)c3cccs3)c3ccccc23)c1,"inconclusive [inhibitor, single point]",–
Clc1ccc2c(NCc3cccs3)ncnc2c1,active: 13 µM,–
CCOC(=O)C1=C(C)N(C[C@@H]2CC[C@@H](Cc3ccc(-c4ccccc4)cc3)O2)C(=O)NC1c1ccc(SCc2ccco2)c([N+](=O)[O-])c1 (stereo not given in full),"inconclusive [inhibitor, single point]",–
O=c1cc(N2CCCCC2)c(-c2ccccc2)nn1Cc1ccccc1Cl,"inconclusive [inhibitor, single point]",–
CCCCCn1c(=O)c(C(=O)c2ccccc2)nc2ccccc21,"inconclusive [inhibitor, single point]",–
O=C(Nc1cc(S(=O)(=O)N2CCOCC2)ccc1Cl)C(=O)c1c(-c2ccccc2)cc2ccccn12,active: 20.6 µM,–
COc1ccc(CCN2C(=O)N(c3ccc(C)cc3)C(=O)C2CC(=O)Nc2ccc(OC)cc2)cc1 (stereo not given),active: 20.6 µM,–
Cc1ccsc1CN(C)C(=O)c1ccc(Oc2ccccc2)cc1,–,inactive: -15.6%
O=C(NCc1cccc(Cl)c1)c1ccc2c(Cl)c3c(nc2c1)CCCC3,"inconclusive [inhibitor, single point]",–
Cc1nn(C)c(Oc2ccccc2)c1CCNS(=O)(=O)c1ccc(Cl)cc1,active: 16.4 µM,–
O=C(NCc1ccccc1C(F)(F)F)C1CCC(=O)N(CCCc2ccccc2)C1 (stereo not given),"inconclusive [inhibitor, single point]",–
CC1CCN(C(=O)CSc2nnc3c(n2)[nH]c2ccc(F)cc23)CC1,"inconclusive [inhibitor, single point]",–
Cc1ccc2c(c1)COc1c3ccc(C(=O)N4CCCCC4)cc3nn1-2,active: 20.6 µM,–
Cc1cc(C)nc(N/N=C2/CCSc3ccc(F)cc32)n1,"inconclusive [inhibitor, single point]",–
